Laboratory results reported in US20240228645A1.
Numbering of substitutions follows the chain as printed. Blank lines part the entries; values can stand above or below the binder they belong to.

Experiments:
[1] = biological target: human BAFF-R expressed on cells (hBAFF-R-CHO isogenic CHO cells; BAFF-R+ cancer cells) (human) (UniProt Q96RJ3); test: cell-based or functional assay
[2] = biological target: human BAFF-R expressed on cells (hBAFF-R-CHO isogenic CHO cells; BAFF-R+ cancer cells) (human) (UniProt Q96RJ3); test: ligand blocking assay; competitor BAFF-biotin on CHO cells expressing human BAFF-R
[3] = biological target: human BAFF-R expressed on cells (hBAFF-R-CHO isogenic CHO cells; BAFF-R+ cancer cells) (human) (UniProt Q96RJ3); test: cell binding assay, human BAFF-R cells
[4] = biological target: cynomolgus monkey BAFF-R expressed on CHO cells (cBAFF-R-CHO) (cynomolgus monkey); test: cell binding assay, cynomolgus BAFF-R cells

- Cytolysis, EC50 [1]: 0.06 nM
B1: AB1084 multispecific binding protein (protein, part only; not given: two other binders and format, part only)
VH: EVQLVQSGGGVVQPGRSLRLSCAASGFTFSMYGMHWVRQAPGKCLEWVAVIWYDASNKYYGDSVKGRFTISRDNSKNTLYLQMNSLRDEDTAVYYCARRFTRLRGWYIEDYGLDVWGQGTTVTVSS
VL: EIVLTQSPSSLSASVGDRVTIT[gap - about 80 residues]FGCGTKVEIK

- IC50 [2]: 6.76 nM
- EC50 [3]: 3.09 nM
- EC50 [4]: 1.85 nM
B2: AB1424/AB1612 multispecific binding protein (protein, part only; not given: other binders, Fc, scFv orientation, not shown: another chain or arm of the molecule; a dimerising Fc or GST)
VH: B1 VH with M31S, R102H, W106Q
VL: EIVLTQSPSSLSASVGDRVTIT[gap - about 80 residues]FGCGTKVEIK
